Laboratory results: PubChem BioAssay AID743279 (National Center for Advancing Translational Sciences (NCATS), 2014)
Out of some 360,000 compounds screened, about 17,000 (4.7%) were called active. Inconclusive results, whose numbers are uncertain, are shown with a selection of clear calls. No stated cut-off is given here; in the data, active means activity change below about -50%; inconclusive means mostly about -30% to -49%; inactive means weaker than that.

Assay: qHTS for Inhibitors of Inflammasome Signaling: IL-1-beta AlphaLISA Primary Screen
Details: THP-1 LPS/ATP IL-1B secretion, 16 h; at 57.5 µM, hits give low values
Procedure, shortened: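 THP-1 cells pretreated 1 hr with compounds (up to 57.5 uM final), then stimulated with LPS (250 ng/mL final) plus ATP (1.25 mM final); secreted IL-1B measured by AlphaLISA after 16 hr, decreased signal indicating inhibition.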
On the % scale 0 is the no-effect control and ±100 the full control effect.

Compound | activity change
COc1ccc(N(CC(=O)NCCC2=CCCCC2)S(=O)(=O)c2ccccc2)cc1OC | inconclusive: -48.4%
O=C(COc1ccccc1C(=O)NCc1ccccc1)Nc1ccccc1 | inconclusive: -37.1%
Oc1ccccc1-c1nc(NCc2cccnc2)c2ccccc2n1 | inconclusive: -47.1%
COc1ccc(NC(=O)c2ccc([N+](=O)[O-])o2)cc1 | active: -96.4%
C#Cc1ccc(CN2CCC(C(=O)Nc3ccc(Oc4ccccc4)nc3)CC2)cc1 | inconclusive: -36%
CCN1C(=O)CS/C1=N\c1nccs1 | inactive: -5.9%
Cc1ccc(/C=N\Nc2nc3ccc(Cl)cc3[nH]2)o1 | inconclusive: -42.3%
Clc1cc(Br)ccc1OCCOCCN1CCCC1 | active: -90.7%
O=C(/C=C/c1ccccc1)NC(NC(=S)Nc1ccc(C(=O)O)cc1)C(Cl)(Cl)Cl (stereo not given) | inactive: 13.8%
Cc1ccc2c(c1)nnn2C1CCN(C(=O)C2CCCCC2)CC1 | inconclusive: -30.4%
COc1ccc(-c2nc(C#N)c(N3CCCCCC3)o2)cc1OC | inactive: -29.9%
O=C(NC1CCCCCC1)c1cc(S(=O)(=O)N2CCOCC2)ccc1N1CCCCC1 | inconclusive: -32.2%
O=C(N/N=C/c1cccc(Oc2ccccc2)c1)c1ccncc1 | inactive: 56.5%
CCOC(=O)C(=Cc1ccc(-c2ccsc2C(=O)OC)o1)C(=O)OCC | inactive: -4.55%
C=CCc1ccccc1OCC(O)CN1CCN(c2ccccc2OC)CC1 (stereo not given) | inconclusive: -37.1%
Cc1c(O)c(CN(C)C)cc2c1oc(=O)c1ccccc12 | inconclusive: -36.6%
COc1ccc(S(=O)(=O)N2CCCCCC2)cc1C(=O)NCc1ccco1 | inconclusive: -38.6%
CCCCC(C(=O)NC1CCCC1)N(Cc1ccco1)C(=O)Cn1nnc(-c2ccc(F)cc2)n1 (stereo not given) | inconclusive: -31.3%
C[C@@H]1CN([C@H](C)CO)C(=O)c2cc(NS(=O)(=O)c3ccc(F)cc3)ccc2O[C@@H]1CN(C)Cc1ccc(Cl)c(Cl)c1 | active: -71.9%
Cc1ccc2nc3c(c(N)c2c1)CCN3C | inconclusive: -36%
Cc1cc(C(=O)N2CCC2(C)C(=O)Nc2ccc3[nH]ncc3c2)nn1C (stereo not given) | inconclusive: -36.6%
CN1C(=O)C(N=Nc2ccc([N+](=O)[O-])cc2)SC1=S (stereo not given) | active: -89.3%

Compound | activity change
Cc1ccc(C2(C)NC(=O)N(CC(=O)c3ccc4c(c3)OCCO4)C2=O)cc1 (stereo not given) | inconclusive: -38.6%
CN(C)CCCN1c2ccc3ccccc3c2Sc2cccc(Cl)c21 | active: -96.4%
O=C(Nc1ccc(F)c(Cl)c1)Nc1nnc([C@@H]2O[C@H](CO)[C@@H](O)[C@H]2O)s1 | inactive: 11.3%
COc1cccc(Nc2nc(C(N)c3ccccc3Cl)cs2)n1 (stereo not given) | inconclusive: -46%
Cc1ccc(OCCOCCN2CCCC2)c(Br)c1 | inconclusive: -44.6%
Cc1cccn2c(=O)c3cc(C(=O)NCc4ccco4)c(=N)n(CCOCCO)c3nc12 | active: -56.9%
Cn1c(=O)c2c(nc(NN=C3CCCC3)n2C)n(C)c1=O | inconclusive: -42.8%
CCOC(=O)[C@]12CCCC=C1N(Cc1cccc3ccccc13)C(=O)[C@H](CC(=O)N1CCN(C(=O)C3CC3)CC1)C2 | inactive: -11.7%
Cc1cc(C)cc(NC(=O)C(OC(=O)c2ccc([N+](=O)[O-])o2)c2ccccc2)c1 (stereo not given) | inconclusive: -33.4%
Cn1cc([C@]2(O)C(=O)N(c3ccccc3)c3ccccc32)c2ccccc21 | inconclusive: -42.1%
CC(C)(C)n1nc2c(c1NC(=O)c1c(F)cccc1F)CS(=O)(=O)C2 | inactive: 0.39%
CSc1ncc(C(=O)Nc2ccc(C)cc2C)c(C)n1 | inconclusive: -40.5%
COc1ccc(/C=C/C(=O)c2sc(-c3ccccc3)nc2C)cc1 | inconclusive: -31.5%
OCC1(Cc2cccc(C(F)(F)F)c2)CCN(Cc2cc(F)cc(F)c2)CC1 | active: -77.5%
Cc1cc2c(SCC(=O)N3CCN(c4ccccc4)CC3)ncnc2s1 | inconclusive: -32.4%
Cc1ccc(-c2nn(-c3ccccc3Cl)cc2C(=O)NCC2CCCO2)cc1 (stereo not given) | inactive: -13.3%
CC(=O)SC(C[N+](=O)[O-])c1cn(C(C)=O)c2ccccc12 (stereo not given) | active: -81.8%
O=C1N/C(=N\N=C\c2ccco2)SC1Cc1ccccc1[N+](=O)[O-] (stereo not given) | inactive: 10.8%
O=C(CCS(=O)(=O)c1ccccc1Cl)Nc1ccc(S(=O)(=O)Nc2ncccn2)cc1 | inconclusive: -35.9%
COc1ccc(/C=N/N(C(C)=O)c2nc(-c3ccc(C)cc3)cs2)cc1 | inconclusive: -36.8%
COc1cc(CN2CCC(n3nccc3NC(=O)c3ccccc3OC)CC2)ccc1F | inactive: 0%
COc1cccc2c1OCC(C(=O)NCc1ccc(Cl)cc1Cl)=C2 | inconclusive: -41.2%

Compound | activity change
Cc1ccc(-c2nnc(N3CCN(CCO)CC3)c3ccccc23)cc1 | inconclusive: -48.4%
COc1ccc(N=CC2CCCCC2=O)c([N+](=O)[O-])c1 (stereo not given) | active: -84.8%
CCOC(=O)C(NC(=O)c1ccccc1)(N1CCCC1=O)C(F)(F)F (stereo not given) | inconclusive: -41.1%
COc1ccc(C)cc1S(=O)(=O)Nc1ccc2c(c1)N(C(C)=O)CCC2 | inactive: 11.4%
CC(C)(C)c1ccc(N/N=C(\C#N)S(=O)(=O)C(C)(C)C)cc1 | inconclusive: -48.8%
COc1ccccc1NC(=O)COc1ccccc1 | inactive: -10.5%
Cc1ccc(NC(=O)Cn2c(=O)oc3ccccc32)c(C)c1 | inactive: -12.4%
Cc1ccc2c(c1)[nH]c1c(=O)n(CCN3CCNCC3)cnc12 | inactive: 21.9%
CCNC(=S)Nc1sc2c(c1C#N)CCC(C)C2 (stereo not given) | inactive: -21.5%
CN(Cc1ccccc1)C(=O)c1ccc(NC(=O)Cc2ccc(NC(=O)C3CCN(C(=O)C4CCCC4)CC3)cc2)cc1 | inactive: 20.5%
CCN(CC)c1ccc(CNc2nc3ccccc3n2C(C)C)cc1 | inconclusive: -35.9%
CCOC(=O)C1=C(CSc2nc(-c3ccccc3)ccc2C#N)OC(N)=C(C#N)C1c1ccccc1 (stereo not given) | inactive: 0%
Cc1ccc(C)c(N2CCN(C(=O)CCCOc3cc(=O)n(C)c4ccccc34)CC2)c1 | inconclusive: -31.9%
CCOc1ccccc1-c1ccc(C(=O)NCc2ccccc2)o1 | inconclusive: -40.3%
COc1ccc(CC(=O)N/N=C/C=C/c2cccc([N+](=O)[O-])c2)cc1OC | inconclusive: -49.1%
O=S(=O)(c1ccccc1)c1nnn2c1nc(NC1CCN(Cc3ccccc3)CC1)c1cc(Cl)ccc12 | inconclusive: -38.9%
CCCS(=O)(=O)c1c(S(=O)(=O)CCC)c2ccc(C(C)=O)cn2c1C(=O)OC | active: -136%
COc1ccc(-c2oc3cccnc3c2/C=C/c2ccc(OC)c(OC)c2)cc1 | inconclusive: -42%
CCOC(=O)C1=C(CN2CCc3ccccc32)NC(=O)NC1c1ccc(Cl)cc1 (stereo not given) | inconclusive: -39.6%
CC(C)C1C(=O)N(Cc2cn(CC3CCCCC3)nn2)CCS(=O)(=O)N1Cc1ccc(-c2cccc(CO)c2)cc1 (stereo not given) | inconclusive: -33.7%
CCCCN(CCCC)C(=O)C1(P(=O)(c2ccccc2)c2ccccc2)CCC1 | inconclusive: -38.7%
CCOC(=O)[C@]12CCCC=C1N(Cc1ccccc1)C(=O)[C@H](CC(=O)NCc1ccc(OC)c(OC)c1)C2 | inconclusive: -31.2%

Compound | activity change
OC(c1ccc(F)cc1)(C1CCCCC1)C(CN1CCOCC1)c1ccccc1 (stereo not given) | inactive: 9.26%
Cc1ccc(CCNC(=O)C23CN(Cc4ccccc4)CC2C(c2ccc([N+](=O)[O-])cc2)=NO3)cc1 (stereo not given) | inconclusive: -43.7%
Cc1cc(C)nc(N2CCCC(C(=O)NCC(c3ccccc3)c3ccccc3)C2)n1 (stereo not given) | inactive: 58.2%
CC(OC(=O)c1cc(Br)ccc1O)C(=O)Nc1ccc(S(=O)(=O)N2CCCC2)cc1 (stereo not given) | inconclusive: -40.7%
O=C1NC[C@H](CCCCN2C[C@H](Cc3ccc(O)cc3)N(CCc3ccccc3)C(=O)C2=O)N(CCc2ccccc2)C1=O | inactive: 4.59%
CCc1ccc(-c2cc3c(=O)n(CC(=O)NCCCN4CCN(CC)CC4)nc(C)n3n2)cc1 | inconclusive: -30.8%
CCN(CC)S(=O)(=O)c1ccc(N2CCCC2)c(NC(=O)Cc2ccc(OC)cc2)c1 | inactive: -0.965%
C[C@H](CO)N1C[C@H](C)[C@@H](CN(C)S(C)(=O)=O)Oc2ccc(NC(=O)Cn3cnnn3)cc2C1=O | inactive: -5.23%
N#CCSc1nc2ccccc2c2nc3ccccc3n12 | active: -89.2%
Cn1c(SCC(=O)Nc2ccccc2Cl)nnc1C1CC1 | inactive: -8.49%
COc1ccccc1/C=C1/C(=O)ON=C1C | inactive: -20.9%
CC(=O)C1=C(S(=O)(=O)c2ccc(C)cc2)CS(=O)(=O)C1 | inconclusive: -46%
O=C1CCN(Cc2ccccc2)C=C1C(=O)c1ccccc1 | inconclusive: -40.5%
COc1ccc2c(c1)[nH]c1c(=O)n(/N=C/c3ccc(OC)c(CN4CCCC4)c3)cnc12 | inconclusive: -38.5%
CCOC(=O)Nc1ccc2c(c1)N(C(=O)CN1CCN3CCCC3C1)c1ccccc1CC2 (stereo not given) | inconclusive: -36.7%
O=C(CCC(=O)N1CCOc2ccccc21)Nc1cc(F)ccc1F | inconclusive: -30.7%
CCC1CCc2c(sc(NC(=O)c3cccnc3)c2C(N)=O)C1 (stereo not given) | inconclusive: -38%
Cc1cc2cc(CN(CC3CCCO3)C(=S)NCc3ccco3)c(=O)[nH]c2cc1C (stereo not given) | active: -75.2%
COc1cc(-c2nc(-c3ccc(NC(=O)c4ccc5c(c4)OCO5)cc3)no2)cc(OC)c1OC | inconclusive: -34.4%
